The values that follow come from PubChem BioAssay AID485344 (National Center for Advancing Translational Sciences (NCATS), 2010).

The campaign covered roughly 340,000 compounds. About 6,900 (2%) were called active. Cut-off read from the data, not from the text of the source: active = inhibition above about 30%; inactive = below that, where a call was filed. The list shows a part of the results, in another mix than the full data. Entries without a call were filed so in the source.

UniProt P14416, sequence (P14416 whole entry, looked up): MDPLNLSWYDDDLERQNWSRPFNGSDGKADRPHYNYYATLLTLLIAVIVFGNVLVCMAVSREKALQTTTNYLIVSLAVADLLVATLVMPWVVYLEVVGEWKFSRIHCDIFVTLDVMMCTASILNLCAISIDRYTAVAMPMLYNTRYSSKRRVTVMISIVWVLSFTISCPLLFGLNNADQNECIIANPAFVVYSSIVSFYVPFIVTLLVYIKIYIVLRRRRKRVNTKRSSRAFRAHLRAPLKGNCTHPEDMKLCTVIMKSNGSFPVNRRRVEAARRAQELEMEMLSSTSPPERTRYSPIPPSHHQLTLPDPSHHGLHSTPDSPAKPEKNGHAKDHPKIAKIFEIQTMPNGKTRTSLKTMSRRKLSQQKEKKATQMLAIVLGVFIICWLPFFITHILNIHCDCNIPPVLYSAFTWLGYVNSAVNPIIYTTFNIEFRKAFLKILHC

The target in this assay is D(2) dopamine receptor (Homo sapiens) (UniProt P14416). Briefly: HTS Assay for Allosteric Antagonists of the Human D2 Dopamine Receptor: Primary Screen for Antagonists. Note: 0% is about no effect. Particulars: HEK293 TREx D2 cells, calcium flux, dopamine EC80; at 10 µM; stronger effect = higher value. The method, boiled down:
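Dopamine at EC80 is the agonist stimulus; test compounds precede it by 180 s. Calcium flux read kinetically in a force-coupled, inducible HEK293 T-REx D2 cell line.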
For orientation: A change in cytosolic calcium serves as a functional read-out for many receptors and channels.
On to `CCOc1ccc(NC(=O)C2CCC(CNc3c(N4CCC(C)CC4)c(=O)c3=O)CC2)cc1` (stereo unspecified), for which the inhibition is active: 30.5%.
With `COc1ccc(C)cc1NC(=O)C1CCC(CNS(=O)(=O)c2ccc3c(c2)CCCC(=O)N3)CC1` (stereo unspecified) the figure was 13.7%; with `CCc1ccc(Cn2nnc3c(=O)[nH]c(C4CCCN(C(=O)c5cccc(Cl)c5)C4)nc32)cc1` (stereo unspecified), -12.1%.
The same measure for `O=C(Nc1ccc(F)cc1)c1ccc(CN2CC(=O)N3CCCCC3C2=O)cc1` (stereo unspecified): 13.4%; for `CCc1ccccc1NC(=O)c1nn(-c2ccc(C)cc2)c(=O)c2c1c1ccccc1n2C`: 6.51%.
Regarding `CCS(=O)(=O)n1nc(-c2ccco2)nc1NCc1ccc(C(C)C)cc1`, the inhibition was -6.58%.
Turning to `CC(C)c1cc(C(=O)NCc2ccc(F)cc2)no1`, the inhibition was -6.58%.
In the case of `Cc1ccc(S(=O)(=O)N(CC(O)CN2CCCCC2)c2cccc([N+](=O)[O-])c2)cc1` (stereo unspecified), the inhibition was active: 35.8%.
With `CC(=O)Nc1ccc(NC(=O)C(NC(=O)C2CCC(C)CC2)C(C)C)cc1` (stereo unspecified) the figure was 9.58%; with `COc1cccc(OC)c1OCCCN1CCC(Cc2ccccc2)CC1`, active: 88.8%.
Regarding `CCOC(=O)N1CCN(Cc2nc3cc(NC(=O)c4ccc(F)cc4)ccc3n2C(C)C)CC1`, the inhibition was -10.4%.
Turning to `COc1ccc(-c2cn3c(n2)sc2cc(C(=O)NCC(C)c4ccccc4)ccc23)cc1` (stereo unspecified), the inhibition is 23.5%.
Turning to `Cc1c(Cl)cccc1NC(=O)Nc1nnc(N(C)C2CCCCC2)s1`, the inhibition amounted to 4.7%.
As for `CCCCCCNC(=O)CCc1c(C)nc2nc(-c3cc(OC)cc(OC)c3)nn2c1C`, the inhibition was -6.82%.
The same measure for `Cc1ccc(C(=O)c2cn(Cc3cc(C)ccc3C)c3nc(C)ccc3c2=O)cc1`: -11.9%.
Consider `CN(C1CCCCC1)S(=O)(=O)c1ccc2c(c1)c(=O)c(C(=O)N1CCN(c3ccc(F)cc3)CC1)cn2C`, for which the inhibition is 3.11%.
Take `CCOCCCNC(=O)C(NC(=O)C1CCC(C)CC1)C(C)C` (stereo unspecified): the inhibition was -2.45%.
Regarding `CC(=O)c1cccc(NC(=O)CCS(=O)(=O)c2ccc3c(c2)n(C)c(=O)c(=O)n3C)c1`, the inhibition was -1.04%.
Take `NC(=O)CSc1nc2cc3c(cc2c(=O)n1CCCCCC(=O)NCc1ccc2c(c1)OCO2)OCO3`: the inhibition turned out to be 5.62%.
With `COc1ccc(OC)c(NC(=O)CSc2c3c(nc4cc(Cl)ccc24)CCCC3)c1`, the inhibition is 4.45%.
As for `Clc1ccc(OCCSc2nnnn2C2CCCCC2)cc1`, the inhibition was active: 34.4%.
As for `CN1CC(=O)N(CC(=O)Nc2cccc(C#N)c2)c2ccccc2C1=O`, the inhibition was -0.0575%.
Consider `O=C(Nc1ccccc1C(F)(F)F)C1(S(=O)(=O)c2ccc(Cl)cc2)CC1`, for which the inhibition was -3.7%.
With `COc1ccc(OC)c(NC(=O)C2CCCN(S(=O)(=O)c3ccc4[nH]c(=O)ccc4c3)C2)c1` (stereo unspecified) the figure was -2.25%; with `Cc1ccc2nc(CSc3nnc(NC(=O)CC(C)C)s3)cc(=O)n2c1`, -3.99%; with `Cc1ccc(Cn2c(CN3CCC(C(=O)NCc4cccnc4)CC3)cc3ccccc32)cc1`, -9.84%.

The term inhibition denotes the drop in the measured response relative to a control, in per cent.
